Source: PubChem BioAssay AID485367 (National Center for Advancing Translational Sciences (NCATS), 2010)
Out of some 330,000 compounds screened, about 560 (0.17%) were called active. Not shown: some 1% with an inconclusive outcome. Calls come from the whole dose curve; as a rule, active = well fitted inhibition curve with a large enough effect; inconclusive = small, poorly fitted or top-dose-only effect, or effect the other way; inactive = flat fitted curve, though single readings scatter. The entries are a selection whose mix differs from that of the whole data set.

Each molecule was assayed against ATP-dependent 6-phosphofructokinase (Trypanosoma brucei brucei) (UniProt O15648) (assay: qHTS Assay to Find Inhibitors of T. brucei phosphofructokinase). Details: T. brucei PFK, ADP-Glo luminescence; series mostly up to 57.5 µM; activity, negative = inhibition: at the top concentration.
Sequence of UniProt O15648 (O15648 whole entry, looked up): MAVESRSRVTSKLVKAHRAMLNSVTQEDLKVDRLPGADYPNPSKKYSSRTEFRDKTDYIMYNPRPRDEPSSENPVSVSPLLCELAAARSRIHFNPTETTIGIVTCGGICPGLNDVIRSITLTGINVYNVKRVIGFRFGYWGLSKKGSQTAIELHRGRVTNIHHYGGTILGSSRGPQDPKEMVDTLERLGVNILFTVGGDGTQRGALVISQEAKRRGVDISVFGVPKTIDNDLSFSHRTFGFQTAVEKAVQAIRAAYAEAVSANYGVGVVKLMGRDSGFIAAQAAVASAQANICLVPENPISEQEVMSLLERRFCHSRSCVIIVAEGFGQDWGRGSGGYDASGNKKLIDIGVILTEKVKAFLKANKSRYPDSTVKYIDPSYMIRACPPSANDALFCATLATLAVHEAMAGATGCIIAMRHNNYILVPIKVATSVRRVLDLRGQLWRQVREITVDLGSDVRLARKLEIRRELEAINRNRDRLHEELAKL
Description: NIH Molecular Libraries Probe Production Network [MLPCN] NIH Chemical Genomics Center [NCGC] Grant: 1 R03 MH092153-01 PI Name: Malcolm Walkinshaw, University of Edinburgh NCGC Assay Overview: Various species of the protozoan family Trypanosomatidae are responsible for a range of serious human diseases in tropical and subtropical areas of the world. […] Many of the disorders caused by trypanosomatids are fatal if left untreated, but most currently used drugs are inefficient and toxic. […] Oxidative metabolism involving the mitochondrial tricarboxylic acid cycle and oxidative phosphorylation are repressed in these parasites, and recent RNA interference (RNAi) experiments have shown that even partial depletion of certain individual glycolytic enzymes can lead to the death of cultured parasites. One such glycolytic enzyme, phosphofructokinase (PFK), catalyzes the formation of fructose-1,6-bisphosphate (F1,6BP) and ADP from fructose-6-phosphate (F6P) and ATP, and in many metabolic circumstances makes an important contribution to the control of flux through the glycolytic pathway. As a specific glycolytic target, PFK is particularly attractive as it catalyzes the first irreversible step in glycolysis, and structural and kinetic studies have shown very substantial and essential differences from corresponding host enzymes, allowing for the discovery of parasite-selective inhibitors. The goal of this screen is to find small-molecule inhibitors of T. brucei PFK using a biochemical assay that measures PFK activity as a function of ADP production. A luminescence-based assay for T. brucei PFK activity has been developed which uses luciferase to detect production of ADP. Traditional luciferase-based nucleotide detection reagents rely on ATP production as a direct substrate for the luciferase reaction; however, PFK catalyzes the transfer of a phosphate from ATP to F6P, resulting in the net depletion of ATP. To directly measure the ADP product of the PFK reaction, we used the ADP-Glo detection kit (Promega), which utilizes two separate reactions to 1) deplete all remaining uncatalyzed ATP and 2) convert all remaining ADP to ATP, which is then detected through a traditional luciferase-coupled reaction. Compounds were screened as a concentration-titration series that ranged from 57 uM to 0.7 nM.
NCGC Assay Protocol Summary: NCGC Assay Protocol Summary: Substrate buffer was dispensed into white, solid 1536-well plates at 3uL/well in 0.1M triethanolamine (TEA) buffer, pH 8.0, containing final concentrations of 5 mM MgCl2, 0.01% Tween20, 0.5 mM fructose-6-phosphate (F6P) and 0.1mM ATP. Then, 23 nL of compounds or DMSO were delivered to each well using a pin tool. One uL T. brucei PFK (0.1M TEA, 0.01% Tween20, 0.1% bovine serum albumin (BSA) and 1.25nM PFK, final concentrations) was then dispensed, and plates were incubated at room temperature for 45 min. The luminescent detection reagent, ADP-Glo (Promega), was then added in two steps: the first reagent, ADP-Glo (which converts remaining uncatalyzed ATP), was added at 2.5uL/well and incubated for ten minutes at room temperature, and the second component, Kinase Detection reagent (which converts ADP to ATP as a substrate for luciferase-based luminescence), was added immediately after at 5uL/well, followed by one final ten minute room temperature incubation. The plates were measured on a ViewLux plate reader for luminescent signal using a clear filter with a one second exposure. The %Activity was determined from the corrected luminescence values. As no specific T. brucei PFK inhibitors have been identified in the literature, 1x (1.25nM) and 0x PFK enzyme controls (untreated) were included to normalize %Activity of identified inhibitors; 0x enzyme values corresponded to 100%Activity (full inhibition), while 1x PFK enzyme values were used to normalize 0%Activity (no inhibition). Concentration-response curves were fitted to the signals arising from the resulting luminescence. […]
Note: nearly all actives have a fitted effect of over 60% in size.
Potency is the fitted concentration of half-maximal effect.

Structure (SMILES) | activity, negative = inhibition | Potency
CN1C(=O)NC(=O)/C(=C\c2ccc([N+](=O)[O-])o2)C1=O | inactive: 18.4% | 
FCCN(CCF)c1cccc(Cl)c1 |  | active: 19 µM
Cc1cc(/C=C2\C(=O)NC(=O)N(Cc3ccco3)C2=O)c(C)n1-c1ccc(C(=O)O)cc1 | inactive: -0.738% | 
CN(C)[C@@H]1C(=O)C(C(N)=O)=C(O)[C@@]2(O)C(=O)C3=C(O)c4c(O)cccc4[C@@](C)(O)C3[C@H](O)C12 (stereo partly specified) | inactive: -13.8% | 
COc1cccc([C@@]2(O)CCCC[C@@H]2CN(C)C)c1 | inactive: -5.84% | 
O=C1NC(=O)N(Cc2ccccc2)C(=O)/C1=C\C=C\c1ccco1 | inactive: -22.5% | 
[Cl][Pt+2][Cl].[NH-]C1CCCCC1[NH-] (stereo unspecified) | inactive: -18.8% | 
NC(N)=Nc1ccc2[nH]c3c(c2c1)C[C@@]1(O)[C@H]2Cc4ccc(O)c5c4[C@@]1(CCN2CC1CC1)C3O5 (stereo partly specified) | inactive: 1.96% | 
CN(C)[C@@H]1C(=O)C(C(N)=O)=C(O)[C@@]2(O)C(=O)C3=C(O)c4c(O)cccc4[C@@](C)(O)[C@H]3[C@H](O)[C@@H]12 | inactive: -22.6% | 
Cc1cc2c(C(C)C)c(O)c(O)c(C=O)c2c(O)c1-c1c(C)cc2c(C(C)C)c(O)c(O)c(C=O)c2c1O | inactive: 0.543% | 
O=C1NC(=O)N(c2ccccc2)C(=O)/C1=C/c1ccc([N+](=O)[O-])s1 | inactive: -14.2% | 
COc1cc(CNC(=O)CCCC/C=C\C(C)C)ccc1O | inactive: 0.838% | 
CCC(COC(=O)c1cc(OC)c(OC)c(OC)c1)(c1ccccc1)N(C)C (stereo unspecified) | inactive: -3.64% | 
Cc1ccc(N2C(=O)NC(=O)/C(=C\c3ccoc3)C2=O)cc1 | inactive: 1.37% | 
CC(C)n1c(/C=C/[C@@H](O)C[C@@H](O)CC(=O)O)c(-c2ccc(F)cc2)c2ccccc21 | inactive: -1.93% | 
O=C1C[C@@H](c2ccc(O)cc2)Oc2cc(O)cc(O)c21 | inactive: 1.26% | 
